In PubChem BioAssay AID1508623 (National Center for Advancing Translational Sciences (NCATS), 2021):
Out of some 48,000 compounds screened, about 450 (0.94%) were called active. Roughly 19% stayed inconclusive and do not appear here. Calls follow the shape of the dose curve; as a rule, active = well fitted inhibition curve with a large enough effect; inconclusive = small, poorly fitted or top-dose-only effect; inactive = no such curve, though single readings can be large or run the other way. The list shows a part of the results.

experiment: Primary qHTS for Identification of Small Molecule Inhibitors of Huntingtin Promoter Activity; settings: HEK293 HTT promoter firefly luciferase reporter (activity 0% = vehicle and -100% = no light), 24 h; series mostly up to 57.5 µM; activity change, negative = inhibition: at the top concentration; also: nearly all actives have a fitted effect of over 50% in size
How it was run: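 Luminescence was read after Dual-Glo reagent and a 10 min room-temperature incubation. Values were normalized to vehicle (0% activity) and zero RLU (-100% activity). Reporter HEK293 cells had been exposed to compounds (up to 57.5 uM final) for 24 h.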
Potency is read from the fitted curve at half-maximal effect.

SMILES	activity change, negative = inhibition	Potency
Cc1cccc(-c2cc(NC(=O)C(C)(C)C)n(-c3ccccc3)n2)c1	inactive: -0.297%	–
O=C(COc1ccc(F)cc1)Nc1ccccc1C(=O)OCc1cc(=O)n2nc(C3CC3)sc2n1	inactive: -7.06%	–
CCOc1ccc(-c2cn3c(n2)sc2cc(C(=O)NCCCc4ccccc4)ccc23)cc1	inactive: -33.2%	–
Cc1nc2nc(SCc3ccc(F)cc3Cl)nn2c(C)c1Cc1ccccc1	inactive: 0.944%	–
O=C(CS(=O)(=O)c1cccc2nsnc12)NCc1ccc(Cl)cc1	inactive: -4.36%	–
COc1ccc(-c2c(C)nn3c4c(cnc23)C(=O)CC(c2ccccc2)C4)cc1 (stereo not given)	inactive: -8.95%	–
CC(NC(=O)c1ccc(Nc2nc3ccccc3n3nnnc23)cc1)c1ccccc1 (stereo not given)	inactive: 16.4%	–
COc1cccc(N2CC(NC(=O)c3ccc4c(c3)OCO4)CC2=O)c1 (stereo not given)	inactive: -10.4%	–
Cc1nc2nc(-c3ccc(Cl)cc3Cl)nn2c(C)c1CCC(=O)Nc1ccc(F)cc1	–	active: 7.94 µM
CCCCN(C)CCCNC(=O)CN1C(=O)COc2ccc(S(=O)(=O)N3CCOCC3)cc21	inactive: -12.8%	–
COc1ccccc1N1CCN(S(=O)(=O)c2c(C)sc3ncn(CC(=O)Nc4ccc(C(F)(F)F)cc4)c(=O)c23)CC1	inactive: 0.821%	–
CC(=O)c1ccc(NC(=O)C2CCCN(S(=O)(=O)c3ccc4c(c3)CCCN4C(C)=O)C2)cc1 (stereo not given)	inactive: -24.7%	–
Cc1cc(C)c(NC(=O)CCCN2C(=O)COc3ccc(C)cc32)c(C)c1	inactive: -11.9%	–
COc1ccc(CCNC(=O)CN(c2cc(C(F)(F)F)ccc2Cl)S(C)(=O)=O)cc1	inactive: -9.49%	–
Cc1ccc(OCC(=O)Nc2ccccc2C(=O)OCc2cc(=O)n3ccsc3n2)cc1C	inactive: -16.1%	–
CCc1ccc(NC(=O)c2cc3nc(-c4ccc(C)cc4)cc(C(F)(F)F)n3n2)cc1	inactive: -1.93%	–
COC(=O)c1sc(NC(=O)c2cc3nc(-c4ccc(Br)cc4)cc(C(F)(F)F)n3n2)c(C(=O)OC)c1C	inactive: -11.5%	–
O=C(O)Cc1sc(Nc2ccccc2Cl)nc1-c1ccccc1	inactive: 69.2%	–
CCOC(=O)c1c(NC(=O)Cc2coc3cc(C)ccc23)sc2c1CCCC2	inactive: -14.4%	–
CCOC(=O)c1cc(S(=O)(=O)N2CCN(c3cc(C)ccc3C)CC2)[nH]n1	inactive: -4.41%	–
COc1ccccc1Nc1nn2c(=O)c3ccc(C(=O)N4CCCCC4)cc3nc2s1	inactive: -13.7%	–
Cc1cccc(C)c1N1CC(c2nc3ccccc3n2CC(=O)OC(C)C)CC1=O (stereo not given)	inactive: -22.3%	–

SMILES	activity change, negative = inhibition	Potency
COc1ccc(NC(=O)CSc2nc3cc(OC)c(OC)cc3c3nc(-c4ccccc4)nn23)cc1Cl	inactive: 3.09%	–
COc1ccc(-c2cc3nccn3c(Nc3ncccc3C(N)=O)n2)cc1OC	inactive: 3.51%	–
COc1cc(-c2ccno2)ccc1S(=O)(=O)N1CCN(c2ccccc2F)CC1	inactive: -9.86%	–
COC(=O)c1ccc(NC(=O)C(=O)NCCc2sc(-c3cccc(F)c3)nc2C)cc1	inactive: -12.1%	–
CCCN(CCC)C(=O)CSc1nc2ccccc2c(=O)n1Cc1ccco1	inactive: -18.1%	–
COc1ccc(CC(=O)NCc2nc3cccnc3n2Cc2ccc(C)cc2)cc1	inactive: -14.2%	–
CC1CCN(S(=O)(=O)c2cc3c4c(c2)CC(=O)N4CCC3)CC1	inactive: -21.9%	–
Fc1ccc(-c2cc(-c3ccccc3)c3c(n2)-c2cc(F)ccc2OC3)cc1	inactive: -14.2%	–
COc1ccc(S(=O)(=O)NCC(c2ccco2)N2CCOCC2)cc1 (stereo not given)	inactive: -9.6%	–
CN(C)S(=O)(=O)c1ccc2c(c1)nnn2CCNC(=O)Nc1ccc(Br)cc1	inactive: -28.3%	–
Cn1c(=O)c2c(nc(NCc3ccccc3)n2Cc2ccccc2Cl)n(C)c1=O	inactive: -12.4%	–
O=C(C1CC1)N1CCN(c2nc3ccc(F)cc3s2)CC1	inactive: -6.8%	–
CCCCOc1ccc(CNC(=O)c2cnc3sc(N4CCOCC4)nn3c2=O)cc1	inactive: -3.46%	–
COc1cccc(OCc2nc3ccccc3n2CCOc2ccccc2C)c1	inactive: -29.7%	–
Cn1nnc2c(C(N)=O)ncn2c1=O	inactive	–
CCOC(=O)C(C)Oc1cccc2c(=O)n(CC(=O)Nc3ccc4c(c3)OCCO4)ccc12 (stereo not given)	inactive: 5.56%	–
Cc1ccc(C)c(Nc2nn3c(=O)c4ccc(C(=O)NC5CCCCC5)cc4nc3s2)c1	inactive: -3.24%	–
COc1ccc(CCNC(=O)CCCCn2c(=O)c3ccccc3n(Cc3ccc(F)cc3Cl)c2=O)cc1OC	inactive: -6.81%	–
CCc1ccc(NC(=O)Cn2c(=O)n(CCC(=O)NCc3ccc4c(c3)OCO4)c(=O)c3ccccc32)cc1	inactive: -7.14%	–
CCC1CN(C(=O)Nc2cc(C)cc(C)c2)c2ccccc2O1 (stereo not given)	inactive: -8.71%	–
Cc1c(C)n(Cc2ccccc2)c2ccc(C(=O)NCc3ccco3)cc12	inactive: -4.54%	–
Cc1c(-c2nsc(NC(=O)c3cccs3)n2)nnn1-c1ccc(Br)cc1	inactive: -3.09%	–

SMILES	activity change, negative = inhibition	Potency
COc1cccc(Cn2c(=O)n(-c3ccccc3C)c(=O)c3c2c2cc(C)ccc2n3C)c1	inactive: -32.9%	–
Cc1ccc(CNC(=O)CN2C(=O)C3CCCCN3c3ccc(C(=O)N4CCCC4)cc32)cc1 (stereo not given)	inactive: -6.65%	–
COc1ccc(Cl)cc1C(=O)Nc1ccc(-c2nnc3n2CCCCC3)cc1	inactive: -7.22%	–
O=C(NCc1ccccc1Cl)c1ccc2c(O)c(S(=O)(=O)c3ccccc3)c(=O)[nH]c2c1	inactive: -3.38%	–
Cc1cccc(Cc2c(C)nc3nc(SCc4ccccc4C)nn3c2C)c1	inactive: -13%	–
CCc1nn(CC(=O)NC(C)c2ccccc2)c(=O)c2cc3sccc3n12 (stereo not given)	inactive: 7.63%	–
CCOC(=O)C1=C(CS(=O)(=O)c2ccc(F)cc2)NC(=O)NC1c1ccc(OCC)c(OC)c1 (stereo not given)	inactive: -12.9%	–
CC(C)CCNC(=O)[C@@H](c1ccccc1)N1Cc2ccccc2C1=O	inactive: -15.1%	–
CCOc1ccc(NC(=O)Cn2nnc(C(=O)Nc3ccc(OCC)cc3)c2N)cc1	inactive: 23.6%	–
Cc1ccc(C)c(N2CCN(c3cc(C)nc4c(-c5ccc(Cl)cc5)c(C)nn34)CC2)c1	inactive: -18.7%	–
Cc1cc(C)cc(OCC(=O)NCC2(N(C)C)CCCCC2)c1	inactive: -0.884%	–
CCCc1cc(=O)n2[nH]c(NCc3ccccc3OC)nc2n1	inactive: -11.5%	–
Cc1ccc(S(=O)(=O)N2CCC(c3ccncc3)CC2)c(C)c1	–	active: 15.8 µM
O=C(COc1ccccc1-c1nc(-c2ccccc2)no1)Nc1ccccc1[N+](=O)[O-]	inactive: -5.91%	–
CC(=O)Nc1ccc(C2Nc3c(C)cc(C)cc3-c3cc(C)nn32)cc1 (stereo not given)	inactive: -10.1% [at 11.5 µM]	–
Cc1ccc(S(=O)(=O)NCCSc2nnnn2-c2ccc(Cl)c(C(=O)O)c2)cc1	inactive: -8.21%	–
COc1cc(OC)c(NS(=O)(=O)c2ccc3c(c2)NC(=O)CCS3)cc1Cl	–	active: 28.2 µM
CCOC(=O)c1ccc(NC(=O)C(Cc2ccccc2)NS(=O)(=O)c2ccc(Br)s2)cc1 (stereo not given)	inactive: 4.14%	–
CCOC(=O)c1c(C)oc2nc(C)nc(NCc3ccccc3OCC)c12	inactive: -2.03%	–
CCCc1nc2ccccc2n2c(-c3cccc(C)c3)c3c(=O)n(C)c(=O)n(C)c3c12	inactive: 7.13% [at 11.5 µM]	–
O=C(NCc1ccccc1Cl)C1CCCN(c2ncnc3onc(-c4ccc(F)cc4)c23)C1 (stereo not given)	inactive: -12.3%	–
